The source of these data is paper PMC5892938.

This is one part of the list. The exact form of the protein is not confirmed.

This assay has as its target GST-SBP-ILF3 (Homo sapiens) (UniProt Q12906). Put plainly: targeted RNA Bind-n-Seq. The conditions noted are these: RBNS binding buffer: 25 mM Tris pH 7.5, 150 mM KCl, 3 mM MgCl2, 0.1% Tween, 0.5 mg/mL BSA, 1 mM DTT; 27 nM protein, 750 pM RNA pool; temperature not stated; high values mean tight binding; sequences stand for … in GGGUAAAAGCGAGGUGAA…CGGGACAAGUAUUAUGGG
For “UUUUUUUUUUGAGACUGAGGCAGUCUCCUG [tttttgagapaired]”, the binding signal (log2 fold change) is 0.719. “UUUUUUUUUUGAGAGGGUAACCCUCUCCUG [tttttgagapaired]”: the binding signal (log2 fold change) was determined as 0.179. The value for “UUUUUUUUUUGAGACCGAGGCGGUCUCCGG [tttttgagapaired]” was 0.643. In the case of “UUUUUUUUUUGAGACGGCCACCGUCUCCGG [tttttgagapaired]” it was 0.839; in that of “UUUUUUUUUUGAGAACGAUGCGUUCUUCUA [tttttgagapaired]”, -0.042. For “UUUUUUUUUUGAGACCGAAUCGGUCUUCUG [tttttgagapaired]”, the binding signal (log2 fold change) came to 0.457. As for “GUGUGUGGUGUUGGUCCCUAACACCACAUA [gtspaired]”, the binding signal (log2 fold change) is -0.499. In the case of “GUUGGUGGUGUUGGUUCCUAACACCGCCGA [gtspaired]” it was -0.284; in that of “GUUGUGUGUGUUGGACCCUAACACACACGA [gtspaired]”, -0.154; in that of “UUUUUUUUUUGAGAUCGGGUCGAUCUCCUA [tttttgagapaired]”, 0.108.

As to “UUUUUUUUUUGAGAGCGAUGCGUUCUCCUA [tttttgagapaired]”, the binding signal (log2 fold change) was found to be 0.393. In the case of “GGUUGGUGUGUUGGUCUCUAACACAUCAGC [gtspaired]” it was -0.954; in that of “GGUUGUUGUGUUGGCGUCUAACACAGCAAC [gtspaired]”, -0.872. “UUUUUUUUUUGAGAGCGGAGCGCUCUCCGG [tttttgagapaired]”: the binding signal (log2 fold change) was 0.142. The value for “UUUUUUUUUUGAGACGGGGUCCGUUUCCUA [tttttgagapaired]” was 0.71. The value for “UUUUUUUUUUGAGACGGAUACCGUUUCCUA [tttttgagapaired]” was 0.267; that for “GGUGUGUGUGUUGGCUCCUAACACACGCGC [gtspaired]” was -0.518; that for “UUUUUUUUUUGAGAGGGCGACCCUCUCCUA [tttttgagapaired]” was 0.337.

Take “UUUUUUUUUUGAGAUGGGGUCCGUCUCCUA [tttttgagapaired]”: the binding signal (log2 fold change) is 0.856.

For “GUGUGGUGUGUUGGAUCCUAACACAUCGCG [gtspaired]”, the binding signal (log2 fold change) was -0.768. In the case of “UUUUUUUUUUGAGACCGCUCCGGUCUCCAG [tttttgagapaired]” it was 0.855; in that of “UUUUUUUUUUGAGAACGGGACGUUCUCCGG [tttttgagapaired]”, 0.263.

Consider “GUGGUUGGUGUUGGUCUCUAACACCGACCG [gtspaired]”, for which the binding signal (log2 fold change) was -1.2. The value for “GGUGGUUGUGUUGGCCCCUAACACAAUCGC [gtspaired]” was -0.185.

With “UUUUUUUUUUGAGACUGGAUCAGUUUUCUA [tttttgagapaired]”, the binding signal (log2 fold change) is 0.0191. The value for “UUUUUUUUUUGAGAGGGGAGCCCUCUCCGG [tttttgagapaired]” was 0.7; that for “UUUUUUUUUUGAGAGGGGAGCCCUCUCCAG [tttttgagapaired]” was 0.747.

As for “UUUUUUUUUUGAGAUGGGAUCCGUCUCCUG [tttttgagapaired]”, the binding signal (log2 fold change) worked out at 0.295. Consider “UUUUUUUUUUGAGAACGGCACGUUCUCCGG [tttttgagapaired]”, for which the binding signal (log2 fold change) worked out at 0.326. In the case of “GUUGUGUGUGUUGGCCUCUAACACACGCGA [gtspaired]” it was -0.811; in that of “UUUUUUUUUUGAGAUGGCAGCCAUUUCCAG [tttttgagapaired]”, 0.515; in that of “UUUUUUUUUUGAGAUGGUUUCCAUCUCCGG [tttttgagapaired]”, 0.0461.

Take “UUUUUUUUUUGAGAUGGUGUCCAUCUCCGG [tttttgagapaired]”: the binding signal (log2 fold change) worked out at 0.466. Turning to “UUUUUUUUUUGAGACUGGCACAGUUUCCAG [tttttgagapaired]”, the binding signal (log2 fold change) is 0.461. Consider “GGUUGUUGUGUUGGACCCUAACACAGCAAC [gtspaired]”, for which the binding signal (log2 fold change) amounted to 0.038. With “UUUUUUUUUUGAGACUGGUUCAGUCUUCUA [tttttgagapaired]”, the binding signal (log2 fold change) is -0.201. In the case of “UUUUUUUUUUGAGACCGGGGCGGUCUUCUG [tttttgagapaired]” it was 0.747; in that of “UUUUUUUUUUGAGAUGGGGACCAUCUCCUG [tttttgagapaired]”, 0.59; in that of “UUUUUUUUUUGAGACCGCGGCGGUCUUCUA [tttttgagapaired]”, 0.702. Consider “UUCCUCUCUCCUCCAGAGGAGGGGGGAGGA [ctspaired]”, for which the binding signal (log2 fold change) was -0.407. In the case of “UUUUUUUUUUGAGACGGAAACUGUCUCCGG [tttttgagapaired]” it was 0.789; in that of “UUUUUUUUUUGAGACGGUAACCGUUUCCGG [tttttgagapaired]”, 0.643; in that of “UUUUUUUUUUGAGAGGGGCCCCCUCUUCUA [tttttgagapaired]”, 0.54. In the case of “GGUUGGUGUGUUGGACUCUAACACAUCAAC [gtspaired]” it was -0.135; in that of “UUUUUUUUUUGAGACCGCUGCGGUCUCCUG [tttttgagapaired]”, 1.01; in that of “UUUUUUUUUUGAGAGCGGGGCGCUCUCCAG [tttttgagapaired]”, 0.359. In the case of “UUUUUUUUUUGAGACGGGAACCGUUUCCAG [tttttgagapaired]” it was 0.431.

For “UUUUUUUUUUGAGAUGGUAUCCAUCUUCUG [tttttgagapaired]”, the binding signal (log2 fold change) worked out at 0.203. The value for “UUCUCUCUUCCUCCAAGGGAGGAGGAGGGA [ctspaired]” was -0.188. In the case of “UUUUUUUUUUGAGACGGAAUCUGUCUUCUG [tttttgagapaired]”, the binding signal (log2 fold change) stood at 0.355. Take “GUGUGUGGUGUUGGUCUCUAACACCAUACA [gtspaired]”: the binding signal (log2 fold change) was -0.413.

“GGUUGUGGUGUUGGAUCCUAACACCGCGAC [gtspaired]”: the binding signal (log2 fold change) is -0.616.

For “UUUUUUUUUUGAGAUCGGAUCGAUCUCCUA [tttttgagapaired]”, the binding signal (log2 fold change) was -0.025. The value for “UUUUUUUUUUGAGAUGGUGACUAUCUUCUA [tttttgagapaired]” was 0.0416; that for “UUUUUUUUUUGAGACCGAAACGGUCUCCAG [tttttgagapaired]” was 0.455. Regarding “UUUUUUUUUUGAGACUGUAUCAGUCUCCUA [tttttgagapaired]”, the binding signal (log2 fold change) is -0.146.

As to “UUUUUUUUUUGAGAUCGUAUCGAUCUCCUG [tttttgagapaired]”, the binding signal (log2 fold change) turned out to be 0.0385. In the case of “UUUUUUUUUUGAGACCGUGACGGUCUCCAG [tttttgagapaired]” it was 0.373.

As for “UUUUUUUUUUGAGAGCGUAUCGCUCUCCAG [tttttgagapaired]”, the binding signal (log2 fold change) was found to be 0.105. In the case of “GUGUGUGGUGUUGGAACCUAACACCGCGCA [gtspaired]” it was -0.821; in that of “UUUUUUUUUUGAGAGUGAGACACUCUCCAG [tttttgagapaired]”, 0.0923. As for “UUUUUUUUUUGAGACUGAGGCAGUCUUCUA [tttttgagapaired]”, the binding signal (log2 fold change) worked out at 0.523. In the case of “UUUUUUUUUUGAGACCGAUCCGGUCUCCUG [tttttgagapaired]” it was 0.678; in that of “UUUUUUUUUUGAGAUGGUGUCUAUCUCCUA [tttttgagapaired]”, 0.591; in that of “UUUUUUUUUUGAGAAGGUGUCCUUCUCCUA [tttttgagapaired]”, 0.196.
